Activation data for 85 molecules are collected here from PubChem BioAssay AID1346428 (National Center for Advancing Translational Sciences (NCATS), 2018).

Several values for one entry are separate records, joined by “and”; a condition that tells them apart may be missing. Equal values may be shown once. The campaign covered roughly 48,000 compounds. About 1,200 (2.5%) were called active. Not shown: some 2% with an inconclusive outcome.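 How the source made its calls: active means activation of at least 60% and not above a set upper limit (about 1 call in 100 departs from these limits); inconclusive means activation of 40% to 60%, or above that upper limit; inactive means activation under 40%.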 Some of the results follow.

This test has as its target Probable G-protein coupled receptor 32 (Homo sapiens) (UniProt O75388). The test is described as follows: qHTS for Agonists of Human Resolvin D1 Receptor DRV1. Further: 0% is about no effect. The settings on record: CHO-K1 GPR32 beta-arrestin PathHunter luminescence, 90 min; at 76.9 µM; active compounds read high; zero percent set by DMSO-only wells. The essentials: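 Luminescent readout of beta-Gal complementation quantifies ligand-induced beta-arrestin association with GPR32 in CHO-K1 cells; 90 min compound incubation at 37 °C, detection 1 h at room temperature.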
Sequence of UniProt O75388 (O75388 whole entry, looked up): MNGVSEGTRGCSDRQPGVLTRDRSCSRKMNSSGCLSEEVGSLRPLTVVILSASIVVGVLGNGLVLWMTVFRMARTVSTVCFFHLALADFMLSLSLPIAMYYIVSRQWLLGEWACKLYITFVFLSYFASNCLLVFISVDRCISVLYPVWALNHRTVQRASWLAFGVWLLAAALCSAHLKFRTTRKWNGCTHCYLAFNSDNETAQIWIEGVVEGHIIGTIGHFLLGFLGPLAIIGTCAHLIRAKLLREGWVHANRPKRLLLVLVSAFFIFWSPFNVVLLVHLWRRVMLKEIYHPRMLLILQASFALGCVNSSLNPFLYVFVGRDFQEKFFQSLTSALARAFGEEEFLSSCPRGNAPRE
On to `Cc1cccc(-c2nc(SCc3ccc(Br)cc3)n3[nH]c(=O)cc3n2)c1`, for which the activation is inactive: -0.167%.

Turning to `CSc1nc2sc3c(c2c(=O)n1-c1ccc(C)c(Cl)c1)CCN(C(C)=O)C3`, the activation is inactive: -14.8%.

`COC(=O)c1ccc(NC(=O)CSc2nc(=O)n(Cc3ccco3)c3c2CCC3)cc1`: the activation was inactive: -18%.

Regarding `CN1C(=O)CC(C)(c2ccccc2)C1=O` (stereo not given), the activation was inactive: -4.19%.

For `CCOc1ccc(CCNC(=O)c2ccc3c(c2)c(C)c(C)n3C)cc1`, the activation is inactive: -8.26%.

Consider `COc1cc(C(=O)N(Cc2ccc(C(C)C)cc2)C2CCS(=O)(=O)C2)cc(OC)c1OC` (stereo not given), for which the activation was inactive: -13.8%.

`COc1cc(NC(=O)c2nnn(Cc3ccc(F)cc3)c2N)cc(OC)c1`: the activation was active: 79.4%.

For `CCOc1ccc(CCNC(=O)CCc2c(C)nc3c(c(C)nn3-c3ccccc3)c2C)cc1OCC`, the activation was inactive: -3.47%.

As to `COc1cc(OC)c(NC(=O)c2c(C)oc3ncn(C)c(=O)c23)cc1Cl`, the activation is inactive: 12%.

`CCOc1ccc(NC(=O)c2ccc(NC(=O)CCS(=O)(=O)c3cccs3)cc2)cc1`: the activation was inactive: 7.06%.

Take `Cc1ccc(C2CC(=O)N(Cc3ccccc3F)c3c2c(C)nn3-c2nc(C)cc(C)n2)cc1` (stereo not given): the activation was inactive: -11.2%.

Turning to `Cc1ccc(Cc2nc3ccccc3nc2SCC(=O)N2CCc3ccccc32)cc1`, the activation was inactive: 0.796%.

As to `CCn1cc(C(=O)N2CCN(c3cccc(Cl)c3)CC2)c(=O)c2cc(S(=O)(=O)N3CCOCC3)ccc21`, the activation is inactive: -3.24%.

Take `C[C@]12CCC(=O)C=C1CC[C@H]1[C@@H]3CC[C@](O)(C(=O)CO)[C@@]3(C)C[C@H](O)[C@@]12F`: the activation is inactive: -8.35%.

With `COc1ccc(NC(=O)Nc2nnc(N3CCCCCC3)s2)cc1`, the activation is inactive: 7.4%.

Consider `CN(C)CCNC(=O)C1CCN(c2nc3ccccc3[nH]2)CC1`, for which the activation was inactive: 4.14%.

For the molecule `Cc1c(NC(=O)c2cc([N+](=O)[O-])ccc2N2CCOCC2)cccc1-c1nc2ccccc2o1`, the activation is inactive: 6.57%.

For the molecule `Cc1ccc(NC(=O)c2nc(S(C)(=O)=O)ncc2N(Cc2ccccc2)Cc2ccco2)c(C)c1`, the activation was inactive: -22.3%.

Regarding `N=C(N)SCCc1cnc[nH]1`, the activation was inactive: 3.65%.

For `Cc1ccc(C(=O)Nc2c(-c3ccccc3)nc3ccccn23)cc1C`, the activation was inactive: -7.25%.

As for `COc1ccc(NC(=O)c2nnn(Cc3ccccc3C)c2N)c(OC)c1`, the activation is inactive: 19.2%.

`CNC[C@H](O)c1cccc(O)c1`: the activation was inactive: -35.8% and inactive: -4.55%.

On to `Cc1nn(-c2ccc(F)cc2)c(-n2cccc2)c1C(=O)N1CCN(c2ccc(F)cc2)CC1`, for which the activation was inactive: 28%.

Consider `O=C(CSc1ccc(-c2ccccn2)nn1)Nc1ccc(F)c(F)c1`, for which the activation is inactive: 5.2%.

For `Cc1ccc(CNC(=O)Cn2c3ncccc3c(=O)n2-c2ccccc2)cc1`, the activation is inactive: 16.2%.

As to `Cc1cccc(NC(=O)Nc2nnc(N(C)C3CCCCC3)s2)c1C`, the activation is inactive: -4.1%.

Turning to `CCOc1ccccc1-n1ccnc(NCc2ccc(F)cc2)c1=O`, the activation was inactive: 48.6%.

As for `CCc1ccccc1N(C)C(=O)c1cn(CC(C)C)c(=O)c2cc(OC)c(OC)cc12`, the activation is inactive: -5.09%.

On to `CC(=O)NNC(=O)N1Cc2ccccc2Oc2ccc(Cl)cc21`, for which the activation was inactive: -8.46%.

On to `Cc1nn(CC(=O)NCc2ccco2)c(=O)c2cc3ccccc3n12`, for which the activation is inactive: -12.2%.

Take `O=C(CCC(=O)N1Cc2ccccc2Oc2ncccc21)Nc1ccc(Cl)cc1`: the activation was inactive: -9.14%.

Turning to `COc1ccc(-c2nn(CC(=O)NC3CCCC3)c3c2cnc2ccc(F)cc23)cc1`, the activation is inactive: -19.6%.

`CC1CCN(S(=O)(=O)c2ccc3c(c2)N(CC(=O)NCc2ccccc2)C(=O)CO3)CC1`: the activation is inactive: -2.55%.

As to `COc1ccc(OC)c(NC2=C(c3ccccc3)C(=O)c3ccccc32)c1`, the activation was inactive: -34.4%.

In the case of `COc1ccc(N2CCN(C(=O)c3cc4c(-c5ccccc5F)nn(C)c4s3)CC2)cc1`, the activation is inactive: 11.4%.

Turning to `O=C(Cn1ncc2c(=O)oc3ccccc3c21)Nc1cc(F)ccc1F`, the activation was inactive: -2.34%.

Turning to `COC(=O)c1ccc(Cl)cc1NC(=O)N1CC=C(c2c[nH]c3ccccc23)CC1`, the activation is inactive: -28.3%.

Consider `CCN(CC)c1nc(-c2ccc(C(C)(C)C)cc2)nc2ccccc12`, for which the activation was inactive: 2.78%.

With `Cc1cccc(OCCCC(=O)Nc2sc3c(c2C(N)=O)CCC(C)C3)c1` (stereo not given), the activation is active: 70.3%.

Regarding `O=C(CSc1nc2nccnc2c(=O)n1CCc1c[nH]c2ccccc12)Nc1ccccc1F`, the activation was inactive: 14.6%.

Regarding `Oc1ccccc1Nc1nc(-c2ccccc2)c2cc(Cl)ccc2n1`, the activation is inactive: -15.3%.

Turning to `COc1ccc(/C=C(\C#N)c2nc(-c3cc(Cl)ccc3OC)cs2)cc1`, the activation is inactive: 8.7%.

In the case of `O=C1CS(=O)(=O)C2(C(=O)N(Cc3cccc(F)c3)c3ccccc32)N1c1ccccc1` (stereo not given), the activation is inactive: -1.52%.

In the case of `COc1ccc2c(CNCC(C)c3ccccc3)c(C(=O)O)n(Cc3ccc(F)cc3Cl)c2c1` (stereo not given), the activation was inactive: -3.61%.

`Cc1cccc(N2CCN(c3c(CN4CCCC4)c(=O)oc4ccccc34)CC2)c1C`: the activation was inactive: -4.76%.

`CCOC(=O)Cn1nc(N2CCN(c3ccc(F)cc3)CC2)ccc1=O`: the activation is inactive: 3.64%.

With `CCOC(=O)c1cccc(NC(=O)CCc2c(C)nc3c4cccnc4nn3c2C)c1`, the activation is inactive: 7.27%.

On to `COC(=O)C1=C(c2ccccc2)c2ccccc2S(=O)(=O)N1CC(=O)Nc1cc(C)ccc1C`, for which the activation is inactive: -22.6%.

Regarding `Cc1ccc(CN2C(=O)C3(SCC(=O)N3c3ccc(C)c(C)c3)c3ccccc32)cc1` (stereo not given), the activation was inactive: 7.88%.

For `Cn1c(=O)n(C)c2cc(CNCc3ccc(C(=O)O)cc3)ccc21`, the activation is inactive: 3.83%.

For the molecule `CSc1ccc(Nc2nn(-c3ccc(OC(F)(F)F)cc3)nc2C(C)=O)cc1`, the activation is inactive: -8.85%.

Take `Cc1c(C(=O)N2CCOCC2)oc2c1-c1nn(CC(=O)NCc3ccccc3)cc1CC2`: the activation was inactive: -14.5%.

For the molecule `CCOCCn1ccc2c(OCC(=O)Nc3cc(C(F)(F)F)ccc3Cl)cccc2c1=O`, the activation was inactive: -8%.

As for `COc1ccccc1Cn1c(CNS(=O)(=O)c2c(C)cc(C)cc2C)nc2cccnc21`, the activation is inactive: -25.9%.

In the case of `Cc1ccc2c(c1)N(CC(=O)NCc1cccc(Cl)c1)C(=O)c1cccnc1O2`, the activation is inactive: -22.7%.

In the case of `CCn1cc(S(=O)(=O)c2ccccc2)c(=O)c2cc(F)c(N3CCCCCC3)cc21`, the activation was inactive: -14.7%.

As to `Cc1cccc(C(=O)Nc2cc3c(cc2N2CCCCC2)n(C)c(=O)n3C)c1`, the activation is inactive: -11.9%.

`CC(=O)c1cccc(NC(=O)c2ccc3c(c2)CCN3S(=O)(=O)c2ccccc2)c1`: the activation is inactive: -12.4%.

`CCOCCCn1c(=N)c(S(=O)(=O)c2ccccc2)cc2c(=O)n3cc(C)ccc3nc21`: the activation was inactive: -8.72%.

`Cc1ccccc1OCC(=O)Nc1ccc(S(=O)(=O)Nc2ncccn2)cc1`: the activation was inactive: 8.32%.

On to `CCOc1ccc(CCNC(=O)c2cc3cc4ccc(OC)cc4nc3s2)cc1OCC`, for which the activation was active: 65.1%.

Take `O=C(CSc1c2c(nc3ccc(Cl)cc13)CCCC2)N1CCCCC1`: the activation is inactive: -24%.

Consider `COCCNC(=O)C(=O)Nc1ccc2nc3n(c(=O)c2c1)CCCCC3`, for which the activation was inactive: 13.8%.

Take `C=Cc1ccc(Cn2c(C(=O)O)c(CNCc3cc(OC)ccc3OC)c3ccc(C)cc32)cc1`: the activation was inactive: 23.8%.

For `COc1ccc(C(=O)Oc2c(Sc3ccc(C)cc3)c(C)nn2C(C)(C)C)c(OC)c1`, the activation was inactive: -3.42%.

Take `Nc1c2c(nc3c1CCC3)CCCC2`: the activation is inactive: -2.65%.

As to `COc1ccc(-c2nc3c(C#N)c[nH]n3c2NC2CCCCC2)cc1`, the activation was inactive: -29.4%.

In the case of `COc1ccc(C2NC(=O)N(C)C3=C2C(=O)N(c2ccccc2)C3)cc1` (stereo not given), the activation is inactive: 4.2%.

In the case of `COc1ccc(-c2nc(C)c(CCNC(=O)c3cccc(C)c3)s2)cc1OC`, the activation is inactive: 17.2%.

As to `COc1ccc(CCNC(=O)C(C)n2nc(C)c3sc4ccccc4c3c2=O)cc1OC` (stereo not given), the activation is inactive: -22.3%.

Take `CCC12CN3CC(C)(CN(C1)C3c1c(C)[nH]c3ccccc13)C2=O` (stereo not given): the activation is inactive: -27.2%.

In the case of `CCOc1ccc(C2C(C(=O)Nc3ccc(C)cc3C)=C(C)Nc3c(C(=O)Nc4ccc(C)cc4)cnn32)cc1OC` (stereo not given), the activation was inactive: -11.3%.

With `CC(=O)c1ccc(S(=O)(=O)N2CCC(Oc3ccc(-n4cnnn4)cc3)CC2)cc1`, the activation is inactive: -8.41%.

Consider `O=C(Nc1cccc(C(=O)OCc2cc(=O)n3nc(C4CC4)sc3n2)c1)c1ccc(F)cc1`, for which the activation is inactive: -7.08%.

In the case of `CCCC(=O)NC1CC(=O)N(c2ccc3c(c2)OCCO3)C1` (stereo not given), the activation is inactive: -6.65%.

Regarding `CCc1ccc(NC(=O)CN2C(=O)C(=O)c3ccccc32)cc1`, the activation was inactive: -40.2%.

For `O=C(Nc1cccc(Cl)c1)N1Cc2ccccc2Oc2ncccc21`, the activation is inactive: -11.4%.

In the case of `Cc1c(C(=O)N(C)C)sc2c1c(=O)n(-c1ccc(Cl)c(Cl)c1)c(=O)n2Cc1ccc(F)cc1`, the activation was inactive: -9.69%.

Consider `COc1ccccc1C1C(C(N)=O)=C(C)Nc2nc(SCc3ccccc3F)nn21` (stereo not given), for which the activation was inactive: 9.51%.

With `CN(C(=O)CSc1nc2ccc(NC(=O)c3ccc(F)cc3)cc2s1)c1ccccc1`, the activation is inactive: 10.5%.

As for `CCOc1ccccc1NC(=O)c1ccc2oc(=O)c(S(=O)(=O)c3ccc(F)cc3)cc2c1`, the activation is inactive: 8.69%.

Take `O=c1c(-c2ccc(O)cc2)coc2cc(O)cc(O)c12`: the activation is inactive: -23.9% and inactive: -11.5%.

With `COc1ccc(NC(=O)CCS(=O)(=O)c2cc(Br)cc3c2N(C(C)=O)CC3)c(OC)c1`, the activation is inactive: -13.7%.

Consider `CCn1cc(C(=O)N(C)Cc2ccccc2)c(=O)c2cc(S(=O)(=O)N3CCCCC3)ccc21`, for which the activation is inactive: 10.6%.

Consider `Cc1cccc(N2CCN(C(=O)Cn3nc(C)c4sc5ccccc5c4c3=O)CC2C)c1` (stereo not given), for which the activation is inactive: -13%.
